Assay results taken from the supplement of paper PMC3334620.
Whole data set: some 33,000 sequences, median “E-score (-0.5 to 0.5)” near -0.021, cut for the highest 2% near 0.32. The list shows a part of the results.

molecular target: T1, Zap1 (UniProt P47043); assay: PBM E-score (8-mer binding enrichment) (E-score (-0.5 to 0.5)); higher = stronger / more preferred TF binding; most listed sequences are background and not binding sites; conditions: protein concentration: 200 nM; construct: GST-full length
T1 sequence: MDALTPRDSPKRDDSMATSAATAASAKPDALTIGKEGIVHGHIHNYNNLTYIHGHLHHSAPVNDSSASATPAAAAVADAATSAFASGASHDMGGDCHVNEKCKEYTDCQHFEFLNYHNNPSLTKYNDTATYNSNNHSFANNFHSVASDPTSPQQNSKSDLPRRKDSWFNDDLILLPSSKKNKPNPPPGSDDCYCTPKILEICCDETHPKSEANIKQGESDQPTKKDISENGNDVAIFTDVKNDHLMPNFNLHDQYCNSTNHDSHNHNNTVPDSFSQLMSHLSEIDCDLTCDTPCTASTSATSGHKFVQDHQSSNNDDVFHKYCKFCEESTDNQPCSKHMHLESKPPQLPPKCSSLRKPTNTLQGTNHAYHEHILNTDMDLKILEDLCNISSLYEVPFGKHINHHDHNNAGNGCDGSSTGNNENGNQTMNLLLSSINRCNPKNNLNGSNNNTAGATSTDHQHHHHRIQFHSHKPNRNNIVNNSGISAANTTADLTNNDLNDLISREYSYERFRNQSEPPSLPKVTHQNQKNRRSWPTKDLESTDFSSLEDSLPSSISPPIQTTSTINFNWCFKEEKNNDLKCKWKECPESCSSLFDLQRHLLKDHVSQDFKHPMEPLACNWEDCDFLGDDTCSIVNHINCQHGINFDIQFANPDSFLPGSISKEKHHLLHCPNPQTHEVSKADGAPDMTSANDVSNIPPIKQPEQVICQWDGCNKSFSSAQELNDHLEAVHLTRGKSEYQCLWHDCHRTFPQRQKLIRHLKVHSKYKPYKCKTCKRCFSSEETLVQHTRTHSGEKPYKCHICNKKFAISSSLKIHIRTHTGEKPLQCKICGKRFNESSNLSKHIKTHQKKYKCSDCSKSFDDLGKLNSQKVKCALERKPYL
How it was run: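 Masliner-normalised scans of fluorescent anti-GST signal were the basis for scoring. That signal came from GST-tagged yeast transcription factors applied at about 100-200 nM to double-stranded universal all-10-mer Agilent arrays on fresh or once-stripped slides. Each ungapped eight-base word, pooled with its reverse complement, received an E-score from the Universal PBM Analysis Suite.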

Row | Sequence | PBM E-score
1 | AAATCGTT | 0.00625
2 | GGTATTGA | 0.17
3 | GCCTTTAC | 0.133
4 | AATACACT | -0.0206
5 | GGTCTATA | 0.117
6 | AGTGGGCC | -0.203
7 | AGTGCTTA | -0.163
8 | GTTGGGCA | -0.206
9 | CTTGCCAC | -0.132
10 | GTGTAAAA | 0.097
11 | ATTTTAAA | 0.0698
12 | CTCCTATC | -0.243
13 | ATGCGGGA | 0.0072
14 | AAGTAGGT | -0.0992
15 | ACTGCAAG | -0.213
16 | CCAGAGTA | 0.111
17 | CTGCCAGC | -0.181
18 | CACTTATA | -0.0243
19 | TCTTAGAA | 0.0577
20 | GGAGAGTA | -0.323
21 | ACCATCGC | 0.103
22 | ACTTTTGA | 0.0191
23 | ACAATACG | -0.0827
24 | CGACTTCA | -0.148
25 | ACACACTG | 0.00988

Row | Sequence | PBM E-score
26 | AGGATTGG | -0.0532
27 | CCCAACCG | -0.00374
28 | CACAAGTA | 0.0203
29 | AGAGATCG | -0.173
30 | AACCGCTC | 0.136
31 | AGAAGCAA | -0.026
32 | GCCTCGCA | -0.162
33 | AATCCACT | 0.0218
34 | CTAAGGCC | -0.0342
35 | CATGTAAG | 0.104
36 | CCGAGGAA | -0.152
37 | ACGTGTCT | -0.25
38 | ACGGTAGA | 0.0354
39 | CGGATGAG | -0.0667
40 | AGACAACG | -0.0324
41 | AATTATAC | 0.164
42 | AAAAGAGA | -0.0407
43 | CCTACACA | 0.0989
44 | ACCCATCG | 0.098
45 | TCAGCTGA | 0.0575
46 | ACCATCCG | 0.139
47 | ATGAGCAG | -0.202
48 | ACTTTGCG | -0.00562
49 | ATGCCGGG | -0.202
50 | GTTGCTTA | -0.061

Row | Sequence | PBM E-score
51 | CGAGTTTA | -0.0372
52 | AACTTTGC | -0.0653
53 | AACATCCG | -0.126
54 | GCGTGTTA | -0.0471
55 | CCACTTTA | 0.126
56 | CCCTAACG | 0.275
57 | AAACCGAA | 0.114
58 | CCAAATTA | 0.268
59 | CACTAAGG | 0.27
60 | ACACATAT | 0.0633
61 | CTGAGGTA | 0.275
62 | GCGTGATA | -0.0875
63 | CAATGACC | 0.308
64 | AAAGTGCC | -0.224
65 | GCTATTGA | -0.0678
66 | CATTGTTC | 0.12
67 | AATAGCCG | -0.0763
68 | ACTTCATA | -0.0147
69 | CACGGATA | 0.127
70 | ACAGTGCA | -0.117
71 | ACGGGCCC | -0.202
72 | CGGACGAA | 0.0663
73 | GGACTTGA | -0.152
74 | ATTCTTGG | 0.0194
75 | ATTAAACC | 0.0845

Row | Sequence | PBM E-score
76 | ATCAATGA | 0.136
77 | AGACCCCT | 0.183
78 | GGCCCACC | 0.0454
79 | CGATTCTC | -0.217
80 | ACGTACTA | -0.0552
81 | GAGGGGAA | -0.12
82 | GACCCGCA | 0.0858
83 | CCTACTCC | -0.231
84 | GCGCTCCA | -0.299
85 | ATCCTCCG | -0.238
86 | CGACACTC | -0.00732
87 | CTAGTAAC | 0.175
88 | GACAATAA | 0.0358
89 | CAGCGCGG | 0.141
90 | ATCGTCGC | -0.203
91 | CACCGGTG | -0.00604
92 | CGACGGAG | -0.221
93 | ATTGATGG | 0.114
94 | CCTACGAA | -0.00552
95 | GAAGGTCA | 0.232
96 | CCGTTCAC | -0.109
97 | ACCTCCTC | -0.0566
98 | GAATCTCC | -0.052
99 | CCCTTCTC | -0.214
100 | CGCATCGC | -0.144

Row | Sequence | PBM E-score
101 | CCGAAAGA | 0.0452
102 | CTTGTGTA | 0.0615
103 | AATATAGG | 0.201
104 | TCGAACAA | 0.251
105 | CTGGCTCA | 0.0741
106 | CGTGGGAC | 0.0556
107 | GAAGGAGC | -0.314
108 | ACATCTGG | 0.0376
109 | CTCCACGA | -0.068
110 | ATGCCTTG | -0.106
111 | CCAGGGCG | -0.178
112 | GAATTGAC | -0.0853
113 | AACAAGCC | -0.195
114 | AAAGAGCG | -0.0344
115 | GCCCCACA | 0.0251
116 | GCGGGTCC | -0.0967
117 | CGTCCTTA | -0.133
118 | GCTATTCC | -0.153
119 | CTGATCCA | -0.0745
120 | ACATCAAG | 0.0177
121 | ATCTATAG | 0.0137
122 | GAGTGCTA | -0.153
123 | AACTCCGG | 0.0218
124 | CGCGCTCC | 0.0055
125 | AGTTTGTC | 0.0189

Row | Sequence | PBM E-score
126 | AGTTACCG | 0.297
127 | ACGGTATG | -0.0688
128 | ATCGCTAC | -0.0302
129 | AAATCAAA | 0.132
130 | TGAACCAA | 0.189
131 | CATATTCG | -0.183
132 | GCGTATAA | 0.118
133 | GTAGACAA | 0.0584
134 | AGAGGAAT | -0.209
135 | CAGTTCTC | -0.00936
136 | GATGCGTA | -0.0736
137 | ATGCCCTG | -0.118
138 | CAAGCTTG | -0.204
139 | ACATAATC | 0.0609
140 | AAACCCCC | -0.0821
141 | CTATCTCA | -0.0196
142 | AGACTTTC | 0.0578
143 | AGAGTATA | -0.237
144 | GAGTTCCC | -0.067
145 | ATGAGCCG | -0.0729
146 | ACCTTCTG | 0.287
147 | CTCGGGTA | 0.266
148 | ACAGGTCA | 0.203
149 | ACAGCGCC | -0.184
150 | AAGACCTA | 0.19

Row | Sequence | PBM E-score
151 | CGCCCGTC | -0.111
152 | AATACGGG | 0.0975
153 | GTCGGAAA | 0.0429
154 | GTGTACTA | -0.0457
155 | ATTCTACG | -0.108
156 | GCGCCGCC | -0.0941
157 | GTAAGGTA | 0.295
158 | ACCGACAA | -0.00253
159 | AAAAAGCG | 0.0786
160 | GGGGCTCA | -0.181
161 | AAAGAAAT | 0.125
162 | CACTTACA | 0.0157
163 | CCCTATCC | -0.096
164 | GCTGTCGA | -0.164
165 | ATTCCCCG | -0.0885
166 | CACTGCTG | -0.185
167 | CATTTGAG | 0.0623
168 | CGGGACCA | -0.349
169 | AATTTCAT | 0.196
170 | CAACAGTA | -0.00264
171 | AATATTCA | 0.0495
172 | AAGTCCCA | -0.137
